Assay results from publication PMC4029850 (Journal of immunological methods, 2014).

Molecular target: DR1 (HLA-DRA*01:01;DRB1*01:01) (Homo sapiens, UniProt P01903+P01911, A100R/D57E/F55L/F60I/F76Y/I96L/L162R/M171V/P40L/Q125E/R42F/V115G/Y59C)
Test: Peptide dissociation assay
Type: binding
Settings: read-out: koff (intrinsic dissociation off-rate)

koff: 5.56e-05 s⁻¹
Sequence: VSKMRMATPLLMQ [CLIP]

Where no end group is shown, it is not given here.
